# The supplement of paper PMC10498489
# The campaign covered roughly 2,300 compounds. About 330 (14%) showed activity.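 How the source made its calls: active = median modified Z-score above 1.96; inactive = 1.96 or below.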 The list shows a part of the results, in another mix than the full data.
# Test system: HepG2 Srxn1-GFP reporter cells (+30 nM CDDO-Me)
# Test: Srxn1-GFP intensity median modified Z-score relative to plate median; higher = stronger NRF2 / oxidative stress reporter activation, active = hit call of the paper
# Conditions: 10 µM; exposure time: 24h
# Summary of the method: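 HepG2 Srxn1-GFP BAC reporter cells (20,000 per well, 96-well plates) were co-exposed to an NRF2 activator at 30 nM and compound at 10 μM (≤0.1% DMSO) for 24 h in three replicate plates. After formaldehyde fixation and Hoechst staining, confocal images were analysed per cell for cytoplasmic GFP, excluding images with under 100 cells. The value is the median over replicates of the per-plate modified Z-score of GFP intensity. Scaling used 1.4826 × median absolute deviation.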
row,Structure (SMILES),Srxn1-GFP intensity median modified Z-score
1,O=NN(CCCl)C(=O)NCCCl [euspeclibcmpd1168],inactive: 0.697
2,CCOC(=O)c1ncn2c1CN(C)C(=O)c1cc(F)ccc1-2 [euspeclibcmpd847],inactive: -0.463
3,O=C1CC(=O)c2ccccc2C1=O [euspeclibcmpd1562],active: 9.54
4,CC(C(=O)O)c1cccc(C(=O)c2ccccc2)c1 (configuration not stated) [euspeclibcmpd422],inactive: -0.217
5,CC1(O)CCC(C(C)(C)O)CC1 (configuration not stated) [euspeclibcmpd966],inactive: -0.099
6,O=C1CC(=O)c2c(c(O)c3ccccc3c2O)C1=O [euspeclibcmpd1727],active: 8.98
7,CCOC(=O)n1ccn(C)c1=S [euspeclibcmpd1210],inactive: -0.0187
8,C=C[C@](C)(O)CCC=C(C)C [euspeclibcmpd1465],inactive: -0.00229
9,C[C@@H]1CC[C@H]2[C@@H](C)C(O)O[C@@H]3O[C@]4(C)CC[C@@H]1[C@]32OO4 (some centres not stated) [euspeclibcmpd1251],active: 3.33
10,c1ccc2c(c1)CN1CCCC1=N2 [euspeclibcmpd2355],inactive: -0.455
11,S=c1ccss1 [euspeclibcmpd2055],active: 7.86
12,Cc1ccccc1OCC(O)CO (configuration not stated) [euspeclibcmpd397],inactive: -0.0268
13,CC(C)(C)C(=O)C(Oc1ccc(Cl)cc1)n1ccnc1 (configuration not stated) [euspeclibcmpd1197],inactive: -0.33
14,CC1(C)C(C(=O)O)N2C(=O)C[C@H]2S1(=O)=O (some centres not stated) [euspeclibcmpd473],inactive: -0.4
15,CCN(CC)CCOC(=O)C(Cc1cccc2ccccc12)CC1CCCO1 (configuration not stated) [euspeclibcmpd577],active: 3.61
16,CC(C=C/C=C(C)/C=C/C1=C(C)CCCC1(C)C)=CC(=O)O [euspeclibcmpd2414],active: 3.46
17,C[C@H](N)[C@H](O)c1cccc(O)c1 [euspeclibcmpd554],inactive: 0.506
18,CCN(CC)C(=S)SSC(=S)N(CC)CC [euspeclibcmpd103],inactive: 0.751
19,O=c1cc(-c2ccccc2)oc2cc(O)cc(O)c12 [euspeclibcmpd1423],inactive: 1.71
20,CC(C)C(N)C(=O)OCCOCn1cnc2c(=O)[nH]c(=N)[nH]c21 (configuration not stated) [euspeclibcmpd757],inactive: 0.568
21,CNC(C)[C@@H]1CC[C@@H](N)[C@@H](OC2[C@@H](N)C[C@@H](N)[C@H](OC3OC[C@](C)(O)[C@H](NC)[C@H]3O)[C@H]2O)O1 (some centres not stated) [euspeclibcmpd820],inactive: -0.00227
22,Cc1ccc(-n2c(C)cc(C(=O)Cn3ncc(Cl)c(Cl)c3=O)c2C)cc1,active: 29
23,COc1ccc2c(=O)c(-c3ccc(O)cc3)coc2c1 [euspeclibcmpd2329],inactive: 0.49
24,CCN(CC)CCOc1ccc2c(c1)C(=O)c1cc(OCCN(CC)CC)ccc1-2 [euspeclibcmpd940],active: 5.93
25,COc1cc([C@@H]2c3cc4c(cc3C(O[C@@H]3O[C@@H]5CO[C@@H](c6cccs6)OC5[C@H](O)[C@H]3O)C3COC(=O)C32)OCO4)cc(OC)c1O (some centres not stated) [euspeclibcmpd647],active: 8.51
26,N=C(N)N=C(N)NCCc1ccccc1 [euspeclibcmpd898],active: 4.79

row,Structure (SMILES),Srxn1-GFP intensity median modified Z-score
1,CC(O)CNS(=O)(=O)CC1CN(C(=O)C2CC2C)CCO1 (configuration not stated),inactive: 1.25
2,CC(C)CCCC(C)N (configuration not stated) [euspeclibcmpd410],inactive: 0.114
3,O=c1cc(-c2ccccc2)oc2cc(O)c(O)c(O)c12 [euspeclibcmpd1724],inactive: -0.573
4,NC(C=O)C(O)NNCc1ccc(O)c(O)c1O (configuration not stated) [euspeclibcmpd32],inactive: -0.0581
5,C/C=C/CC(C)C(O)C1C(=O)NC(CC)C(=O)N(C)CC(=O)N(C)C(CC(C)C)C(=O)NC(C(C)C)C(=O)N(C)C(CC(C)C)C(=O)NC(C)C(=O)NC(C)C(=O)N(C)C(CC(C)C)C(=O)N(C)C(CC(C)C)C(=O)N(C)C(C(C)C)C(=O)N1C (configuration not stated) [euspeclibcmpd445],active: 8.19
6,CCOC(=O)c1c(C)cc(O)c(C=O)c1O [euspeclibcmpd1571],inactive: -0.398
7,Oc1cccc2[nH]ccc12 [euspeclibcmpd2031],inactive: -0.358
8,C/C1=C/CC(C)(C)/C=C/C/C(C)=C/CC1 [euspeclibcmpd1338],inactive: 0.112
9,NC(Cc1ccccc1)C(=O)O (configuration not stated) [euspeclibcmpd1063],inactive: 0.375
10,CCCCNc1cc(C(=O)O)cc(S(N)(=O)=O)c1Oc1ccccc1 [euspeclibcmpd424],inactive: -0.232
11,CNC[C@H](O)[C@@H](O)[C@H](O)[C@H](O)CO [euspeclibcmpd2050],inactive: 1.21
12,NCCCC(O)(P(=O)(O)O)P(=O)(O)O [euspeclibcmpd2187],inactive: -0.613
13,NCCNCCNCCN [euspeclibcmpd837],inactive: -0.128
14,CCN1CCCC(OC(=O)C(c2ccccc2)c2ccccc2)C1 (configuration not stated) [euspeclibcmpd443],inactive: 0.699
15,Nc1ccc(C(=O)O)cc1 [euspeclibcmpd2374],inactive: -0.118
16,CC(C)NC[C@H](O)COc1cccc2ccccc12 [euspeclibcmpd2365],inactive: -0.967
17,CN(C/C=C/c1ccccc1)Cc1cccc2ccccc12 [euspeclibcmpd791],inactive: 0.553
18,CC(=O)CCCCn1c(=O)c2c(ncn2C)n(C)c1=O [euspeclibcmpd591],inactive: 0.162
19,Cc1cc(C)cc(OCC2CNC(=O)O2)c1 (configuration not stated) [euspeclibcmpd668],inactive: -0.207
20,COc1ccc(C(=O)O)c(O)c1OC [euspeclibcmpd1494],inactive: -0.416
21,O=C(O)[C@H](O)[C@@H](O)[C@H](O[C@@H]1O[C@H](CO)[C@H](O)[C@H](O)[C@H]1O)[C@H](O)CO [euspeclibcmpd2054],inactive: -0.254
22,O=C(O[C@@H]1Cc2c(O)cc(O)cc2O[C@@H]1c1ccc(O)c(O)c1)c1cc(O)c(O)c(O)c1 [euspeclibcmpd1530],inactive: -0.77
23,CNCCCC12CCC(c3ccccc31)c1ccccc12 [euspeclibcmpd174],inactive: 0.89
24,OC(c1cc(C(F)(F)F)nc2c(C(F)(F)F)cccc12)C1CCCCN1 (configuration not stated) [euspeclibcmpd519],inactive: 0.254
25,C/C=C/c1ccc(OC)cc1 [euspeclibcmpd597],inactive: -0.344
26,O[C@H]1[C@H](O)[C@@H](O)[C@H](O)[C@@H](O)[C@H]1O [euspeclibcmpd161],inactive: -0.185

row,Structure (SMILES),Srxn1-GFP intensity median modified Z-score
1,CC1=C(C(=O)O)N2C(=O)C(NC(=O)C(N)c3ccccc3)C2SC1 (configuration not stated) [euspeclibcmpd429],inactive: 0.0268
2,NC1CONC1=O (configuration not stated) [euspeclibcmpd2411],inactive: -0.00655
3,CC(=O)c1ccc[nH]1 [euspeclibcmpd1344],inactive: -0.0934
4,CC(C)(C)CC(C)(C)c1cc(Cc2cc(C(C)(C)CC(C)(C)C)cc(-n3nc4ccccc4n3)c2O)c(O)c(-n2nc3ccccc3n2)c1 [euspeclibcmpd1314],inactive: 0.221
5,NC(=O)c1cnccn1 [euspeclibcmpd257],inactive: -0.418
6,CC1(C)C(=O)C=C[C@@]2(C)C1CC(=O)[C@]1(C)C2CC[C@@]2(C)[C@H](c3ccoc3)OC(=O)C3O[C@]321 (some centres not stated) [euspeclibcmpd1588],active: 13
7,CSc1nc2cc(Cl)c(Oc3cccc(Cl)c3Cl)cc2[nH]1 [euspeclibcmpd1225],active: 4.92
8,O=C(CCNNC(=O)c1ccncc1)NCc1ccccc1 [euspeclibcmpd1233],inactive: -0.315
9,CC(=O)NCCCCCC(=O)O [euspeclibcmpd1113],inactive: -0.625
10,CS(=O)(=O)c1ccc([C@H](O)[C@H](CF)NC(=O)C(Cl)Cl)cc1 [euspeclibcmpd827],inactive: -0.193
11,Cc1ncc([N+](=O)[O-])n1CC(C)O (configuration not stated) [euspeclibcmpd1190],inactive: -0.252
12,COC(=O)c1c(C)cc(OC(=O)c2c(C)cc(O)c(C=O)c2O)c(C)c1O [euspeclibcmpd1556],active: 12.5
13,CC1=C(/C=C/C(C)=C/C=C/C(C)=C/CO)C(C)(C)CCC1 [euspeclibcmpd419],inactive: -0.0835
14,N#C/C(=C\c1ccc(SC(F)(F)F)cc1)c1nnc2n1CCCCC2,active: 2.21
15,C[N+](C)(C)CC(O)CC(=O)O (configuration not stated) [euspeclibcmpd2119],inactive: -0.518
16,CCOc1ccc2nc(S(N)(=O)=O)sc2c1 [euspeclibcmpd779],inactive: 1.74
17,CC(=O)Oc1cc(-c2coc3cc(OC(C)=O)c(OC(C)=O)c(OC(C)=O)c3c2=O)cc(OC(C)=O)c1OC(C)=O [euspeclibcmpd2320],inactive: -0.508
18,O=C(O)c1ccccc1O [euspeclibcmpd2452],inactive: -0.566
19,O=C(O)c1ccccc1O [euspeclibcmpd2439],inactive: -0.701
20,O=c1oc2cc(O)ccc2s1 [euspeclibcmpd1146],active: 5.96
21,CCOC(=S)SSC(=S)OCC [euspeclibcmpd2159],inactive: 0.401
22,O=C1c2ccccc2C(=O)C1c1ccc(Br)cc1 [euspeclibcmpd777],inactive: -0.247
23,CC(C)OC(=O)C(C)(C)Oc1ccc(C(=O)c2ccc(Cl)cc2)cc1 [euspeclibcmpd368],inactive: -0.37
24,Cc1c(O)c(=O)n(-c2ccccc2)n1C [euspeclibcmpd1750],inactive: -0.19
25,O=C(O)CCC(=O)Nc1ccc(S(=O)(=O)N=c2[nH]ccs2)cc1 [euspeclibcmpd428],inactive: 0.358
